In PubChem BioAssay AID1745845 (National Center for Advancing Translational Sciences (NCATS), 2022):
“And” between values parts separate entries of the source, which are not always exact repeats. Equal values may be shown once. Hit rate of the full screen: of about 360,000 compounds, about 2,600 (0.72%) were called active. Inconclusive means that the source gave no clear call. Such entries were picked first, then a sample of the others. Calls come from the whole dose curve; as a rule, active = well fitted inhibition curve with a large enough effect; inconclusive = small, poorly fitted or top-dose-only effect; inactive = no such curve, though single readings can be large or run the other way. Potencies of inconclusive entries are doubtful fits and often do not repeat.
% is set by controls: 0 for no effect and ±100 for the full control effect; potency is the fitted concentration of half-maximal effect; tags give direction and shape of the fitted curve.

Test: Primary qHTS for Inhibitors of ATXN expression; note: nearly all actives have a fitted effect of over 55% in size
Settings: HEK-293 ATXN2-luciferase reporter, luminescence, 24 h; activity change, negative = inhibition: at 57 µM (top of the series)
Method in brief: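 qHTS (up to 57 uM final) was run with 24 h compound exposure of reporter cells at 37 °C. Each well was multiplexed: SteadyGlo luminescence measured ATXN2-luciferase expression after a fluorogenic Gly-Phe-AFC viability readout (25 uM final).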
With `O=C(NC1CCCCC1)Sc1ccc(Cl)cc1` the Potency was inconclusive: 25.1 µM [inhibitor, single point].
In the case of `O=[N+]([O-])c1cc(S(=O)(=O)C(F)(F)F)ccc1Sc1nc2ccccc2[nH]1`, the Potency is reported as inconclusive: 39.8 µM [inhibitor, single point].
For `Nc1nc(N)c(-c2ccccc2)s1`, the “activity change, negative = inhibition” value was inactive: 9.68%.
For `Cc1ccc(C(N)=O)cc1Nc1nccc(-c2cn(C(C)C)c3cnccc23)n1`, the Potency was active: 12.2 µM.
With `Cc1ccccc1Cn1c(=N)n(CC(=O)c2ccc([N+](=O)[O-])cc2)c2ccccc21` the Potency was inconclusive: 28.2 µM [inhibitor, single point].
For `O=[N+]([O-])c1cc(S(=O)(=O)N2CCCC2)ccc1O`, the “activity change, negative = inhibition” value was inactive: 1.27%.
For `O=C1CCCN1c1ccc(S(=O)(=O)NCCc2ccc(Cl)cc2)cc1`, the “activity change, negative = inhibition” value was inactive: -14.4%.
In the case of `COc1cc(NC(=O)c2cc(-c3ccccc3)nc3c2cnn3C(C)C)cc(OC)c1OC`, the Potency is reported as inconclusive: 25.1 µM [inhibitor, partial curve].
For `CC(NC(=O)C1CCN(S(=O)(=O)c2cccs2)CC1)c1cccc(Cl)c1` (stereo not drawn), the “activity change, negative = inhibition” value was inactive: 5.62%.
In the case of `O=C(N/N=C/c1sc(N2CCCCC2)nc1-c1cccs1)C1CC1`, the “activity change, negative = inhibition” value is reported as inactive: 18.4%.
In the case of `COC(=O)CNC(c1ccccc1Cl)c1cc(Br)ccc1NS(=O)(=O)c1ccc(C)cc1` (stereo not drawn), the “activity change, negative = inhibition” value is reported as inactive: -14.2%.
In the case of `COc1ccc(/C=N/NC(=O)NC23CC4CC(CC(C4)C2)C3)c(OC)c1`, the “activity change, negative = inhibition” value is reported as inactive: 0.846%.
With `COc1ccc(S(=O)(=O)N(C)C[C@H]2Oc3c(NC(=O)Cc4ccccc4)cccc3C(=O)N([C@H](C)CO)C[C@@H]2C)cc1` the Potency was inconclusive: 25.1 µM [inhibitor, partial curve, poor fit].
In the case of `COc1ccc(S(=O)(=O)N2CCC(c3nnc(-c4ccccc4C)o3)CC2)c(OC)c1`, the Potency is reported as active: 3.55 µM.
In the case of `COc1ccccc1N1CCN(C(=O)c2cccc(S(=O)(=O)N3c4ccccc4CC3C)c2)CC1` (stereo not drawn), the Potency is reported as inconclusive: 22.4 µM [inhibitor, single point].
With `Cc1cccn2c(=O)c(/C=C(\C#N)C(N)=O)c(N3CCN(c4cccc(Cl)c4)CC3)nc12` the Potency was inconclusive: 31.6 µM [inhibitor, single point].
With `Cc1cc(C(C#N)c2ccc(Cl)cc2)c(Cl)cc1NC(=O)c1cc(I)cc(I)c1O` (stereo not drawn) the Potency was inconclusive: 31.6 µM [inhibitor, single point].
With `Cc1cc(C)cc(N(C(=O)c2snc(C(N)=O)c2N)C(C(=O)NCC2CCCO2)c2cccs2)c1` (stereo not drawn) the “activity change, negative = inhibition” value was inactive: -11.7%.
With `Cn1c(SCC(=O)Nc2ccc(F)cc2)nc2c([nH]c3ccccc32)c1=O` the “activity change, negative = inhibition” value was inactive: -11.5%.
With `CCOc1ccc2oc(C(=O)Nc3ccc4c(c3)OCO4)c(C)c2c1` the “activity change, negative = inhibition” value was inactive: 25.7%.
For `O=C(/C=C/c1ccccc1[N+](=O)[O-])OCC(=O)c1ccccc1`, the “activity change, negative = inhibition” value was inactive: 4.15%.
In the case of `CCOC(=O)Nc1ccc2c(CNC(C)c3ccccc3OC)cc(=O)oc2c1` (stereo not drawn), the Potency is reported as inconclusive: 0.447 µM [inhibitor, full curve, poor fit].
With `COc1ccc(NC(=O)C2(C)CCN2Cc2csc3ccccc23)cc1OC` (stereo not drawn) the Potency was inconclusive: 39.8 µM [inhibitor, partial curve, poor fit].
With `NC(=S)N=Nc1c(O)cc(O)c2[nH]c(=O)ccc12` the Potency was inconclusive: 25.1 µM [inhibitor, single point].
With `Cc1csc(N(C)C(=O)CSc2nnc(COc3cccc4ccccc34)o2)n1` the Potency was inconclusive: 1.58 µM [inhibitor, partial curve, poor fit].
With `Cc1ccc(-c2onc(C)c2C)cc1S(=O)(=O)N1CC(C)Oc2ccccc21` (stereo not drawn) the Potency was inconclusive: 28.2 µM [inhibitor, partial curve, poor fit].
For `Cc1ccccc1CN1CCc2cc([N+](=O)[O-])ccc21`, the Potency was inconclusive: 28.2 µM [inhibitor, single point].
With `Cc1ccc(CSc2nc3ccncc3[nH]2)cc1` the Potency was inconclusive: 15 µM [inhibitor, partial curve, poor fit].
With `CC(=O)c1cc2c(cc1NS(=O)(=O)c1ccccc1)OCO2` the “activity change, negative = inhibition” value was inactive: -0.678%.
For `COc1ccc(NC(=O)C2Cc3c(-c4ccc5c(c4)OCO5)ccnc3O2)cc1OC` (stereo not drawn), the Potency was inconclusive: 15.8 µM [inhibitor, partial curve].
With `CCOC(=O)c1c(S(=O)(=O)N2CCCC(C(=O)Nc3cc(C)ccc3OC)C2)c(C)n(C)c1C` (stereo not drawn) the “activity change, negative = inhibition” value was inactive: 8%.
With `Cc1cccc(N2CCN(C(=O)c3ccc(-n4cncn4)c([N+](=O)[O-])c3)CC2)c1C` the “activity change, negative = inhibition” value was inactive: -29.9%.
With `N#CCCN(C(=S)Nc1ccc(S(=O)(=O)N2CCOCC2)cc1)c1ccccc1F` the “activity change, negative = inhibition” value was inactive: -5.82%.
For `Cc1c2cnccc2c(C)c2c1oc1ccccc12`, the “activity change, negative = inhibition” value was inactive: 20.6%.
For `Cc1cc(-c2cc(C(=O)NCc3ccccc3)on2)nc(S(C)(=O)=O)n1`, the Potency was inconclusive: 39.8 µM [inhibitor, single point].
For `CCN1CCN(Cc2ccc(NC(=O)c3cc(NC(=O)C(=O)c4c[nH]c5ccccc45)cc(OC)c3)cc2C(F)(F)F)CC1`, the Potency was inconclusive: 39.8 µM [inhibitor, single point] and active: 14.1 µM.
With `CCC(O)C1CCN(C(=O)c2cc(COc3ccc4ncccc4c3)on2)CC1` (stereo not drawn) the Potency was inconclusive: 2.82 µM [inhibitor, full curve, poor fit].
For `CC[n+]1c(/C=C(\C)Nc2ccccc2)sc2ccccc21`, the Potency was inconclusive: 15 µM [inhibitor, partial curve, poor fit].
For `Cc1cc(C)c(Nc2cc(S(=O)(=O)O)c(N)c3c2C(=O)c2ccccc2C3=O)c(C)c1`, the “activity change, negative = inhibition” value was inactive: -34.5%.
With `CCCC[C@@H]1CNCCN1CCc1cc(C(F)(F)F)cc(C(F)(F)F)c1` the Potency was inconclusive: 31.6 µM [inhibitor, single point].
In the case of `Cc1ccc(Nc2nc(-c3ccncc3)nc3ccccc23)cc1`, the Potency is reported as inconclusive: 44.7 µM [inhibitor, single point].
For `COCCn1cnc2c(c1=O)c1nc3ccccc3nc1n2/N=C/c1cccc(OC)c1`, the Potency was inconclusive: 39.8 µM [inhibitor, single point].
For `O=C(Nc1ccnn1C1CCN(Cc2ccc(OC(F)F)cc2)CC1)C1CCCC1`, the Potency was inconclusive: 15.8 µM [inhibitor, partial curve, poor fit].
